Measured values: PubChem BioAssay (NCATS)
Where “and” joins values, the source holds several entries; their conditions need not be identical. Identical values can stand only once. Inconclusive results, whose numbers are uncertain, are shown with a selection of clear calls. A call without a number means that no potency is given here. A potency beside an inconclusive call is a rough fit, not a confirmed value. Calls of active or inactive are those of the source. Calls follow the shape of the dose curve; as a rule, active = well fitted cell-killing curve with a large enough effect; inconclusive = small, poorly fitted or top-dose-only effect, or effect the other way; inactive = no such curve, though single readings can be large or run the other way.

test: Viability qHTS for spleen associated tyrosine kinase inhibitor (SYKi) naive MV4-11 cells (AID 1963823); conditions: MV4-11 AML viability, CellTiter-Glo luminescence, 72 h; series mostly up to 45 µM; also: nearly all actives have a fitted effect of over 40% in size
Procedure, shortened: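 SYKi-naive MV4-11 AML cells, 500 per well, were exposed to library compounds for 72 hr at 37 C, 5% CO2. Viability was then read by CellTiter-Glo luminescence after 10 min at room temperature.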
Potency is read from the fitted curve at half-maximal effect; tags tell the direction and shape of the fitted curve.

Question: With `CCOc1ccccc1C(N)=O` as the molecule, how does the Potency read?
Answer: inconclusive: 8.41 µM [cytotoxic, partial curve, poor fit]

Question: For `COC(=O)C[C@H]1[C@]2(C)C3=C(C)[C@H](c4ccoc4)C[C@H]3O[C@@H]2[C@H](O)C2[C@](C)(C(=O)OC)C=CC(=O)[C@@]21C` (some centres not stated), which Potency is on record?
Answer: inactive

Question: With `C=C1CC[C@H]2C(=C)CC[C@H]3C(=C)C(=O)O[C@@H]3[C@@H]12` as the molecule, how does the Potency read?
Answer: active: 4.11 µM

Question: With `CCCCC(CC)COC(=O)c1ccc(N(C)C)cc1` (configuration not stated) as the molecule, how does the Potency read?
Answer: inactive

Question: Which Potency does the source give for `C=C1CCC(OC(C)=O)C2(C)CC3OC(=O)C(C)=C3CC12` (configuration not stated) here?
Answer: inactive

Question: With `O=C(O)c1ccccc1NCCc1ccccc1` as the molecule, how does the Potency read?
Answer: inactive

Question: Which Potency does the source give for `CC1(C)CCCC2(C)C1CC(=O)C13CC(CCC12)C(O)(CO)C3` (configuration not stated) here?
Answer: inconclusive: 9.04 µM [cytotoxic, partial curve, poor fit]

Question: With `Cc1cccc(-c2nn3c(c2-c2ccnc4ccc(C(N)=O)cc24)CCC3)n1` as the molecule, how does the Potency read?
Answer: inactive and inconclusive: 37.2 µM [cytotoxic, single point]

Question: Which Potency does the source give for `C=C1C2(C)CC3C4(C)C=CC(=O)OC(C)(C)C4CCC3(C)C1(C(=O)OC)C(=O)C(C)(O)C2=O` (configuration not stated) here?
Answer: inactive

Question: Which Potency does the source give for `COc1ccnc2c1CCCCC2S(=O)c1nc2ccccc2[nH]1` (configuration not stated) here?
Answer: inconclusive: 5.31 µM [cytotoxic, partial curve, poor fit]

Question: Which Potency does the source give for `CC(=O)CCC1=C(C)C(O[C@@H]2O[C@H](CO)[C@@H](O)[C@H](O)[C@H]2O)C(O)CC1(C)C` (some centres not stated) here?
Answer: inactive

Question: With `CC[C@@H](c1ccc(F)c(F)c1)n1c(C(=O)OC)c(-c2ccno2)[nH]c1=S` as the molecule, how does the Potency read?
Answer: inconclusive: 16.4 µM [cytotoxic, single point]
